Hit rate of the full screen: of about 390,000 compounds, about 930 (0.24%) were called active. The inconclusive results got no clear call from the source; some entries with a clear call stand among them for comparison. Calls come from the whole dose curve; as a rule, active = well fitted activation curve with a large enough effect; inconclusive = small, poorly fitted or top-dose-only effect; inactive = no such curve, though single readings can be large or run the other way. Potencies of inconclusive entries are doubtful fits and often do not repeat.
Assay: qHTS for Suppressors of FUS Proteinopathy: Primary screen using FUS-linked yeast assay; note: nearly all actives have a fitted effect of over 55% in size;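 for growth rescue (activation): plate controls were DMSO vehicle for no effect and reference control for full effect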
Settings: S. cerevisiae FUS-expressing, OD600, 24 h; Potency: growth rescue; growth rescue (activation): at 76.6 µM (top of the series)
In short: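 Restored growth of FUS-toxic S. cerevisiae, read as 600 nm absorbance after 24 h at 30C in galactose medium (starting OD 0.005). Controls CP55940 and DMSO.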
Potency is the fitted concentration of half-maximal effect; tags give direction and shape of the fitted curve.

| SMILES | Potency | growth rescue (activation) |
| --- | --- | --- |
| COCCN1Cc2cccc(C(=O)Nc3cccc(-c4nc5ccccc5[nH]4)c3)c2C1=O | inconclusive: 28.2 µM [activator, single point] |  |
| C[C@@H]1CN([C@@H](C)CO)C(=O)c2cc(NC(=O)C3CCCCC3)ccc2O[C@@H](C)CCCCO[C@@H]1CN(C)Cc1ccncc1 |  | inactive: -8.88% |
| Cc1ccccc1C(=O)N1N=C(c2ccc(NS(C)(=O)=O)cc2)CC1c1cccs1 (stereo unspecified) | inconclusive: 50.1 µM [activator, single point] |  |
| COC(=O)C1=C(C)OC(N)=C(C#N)C1c1ccccc1 (stereo unspecified) |  | inactive: 6.46% |
| COc1ccc(-n2c(SCc3cccc4ccccc34)nnc2-c2ccccc2)cc1 | inconclusive: 25.1 µM [activator, single point] |  |
| CCOC(=O)CSc1nc2sc3c(c2c(=O)n1-c1ccccc1)CCN(C(C)C)C3 | inconclusive: 31.6 µM [activator, partial curve, poor fit] |  |
| Cc1ccc(NC(=O)Cn2ncn3c(cc4ccccc43)c2=O)cc1C |  | inactive: 24.9% |
| O=C(Nc1ccc2c3c(cccc13)CC2)c1ccco1 | inconclusive: 28.2 µM [activator, partial curve, poor fit] |  |
| CCCCc1nn2c(=O)cc(COC(=O)c3cccs3)nc2s1 |  | inactive: -4.48% |
| Cc1cccc(OCC(=O)Nc2ccc(N3CCCC3)cc2)c1C | active: 25.1 µM |  |
| CC1C(=O)N(Cc2cn(CCC3OCCCO3)nn2)CCS(=O)(=O)N1Cc1ccc(-c2ccc(Cl)nc2)cc1 (stereo unspecified) | inconclusive: 44.7 µM [activator, single point] |  |
| CCOc1ccc(OCCn2c(=S)[nH]c3ccccc32)cc1 |  | inconclusive: 95.1% [activator] |
| Cc1ccc(NC(=O)CSC2=C(C#N)C(c3ccco3)C3=C(CC(C)(C)CC3=O)N2)cc1 (stereo unspecified) | inconclusive: 17.8 µM [activator, single point] |  |
| O=C(c1cc(-c2ccncc2)nc2ccccc12)N1CCN(c2ccccc2O)CC1 | active: 17.8 µM |  |
| CN(C)c1ccc(CNC(=O)C2CCN(S(=O)(=O)c3ccc4[nH]c(=O)ccc4c3)CC2)cc1 |  | inactive: 6.84% |
| CCC[C@H]1[C@@H](O)CC[C@@]23CCCN2C(=O)CCC[C@@H]13 |  | inactive: -12.5% |
| CCc1ccc(C2C(C#N)=C(N)SC(N)=C2C#N)s1 |  | inactive: 12.4% |
| COc1cccc(N=c2oc3ccc(OC)cc3cc2-c2nc3ccccc3[nH]2)c1 | inconclusive: 25.1 µM [activator, partial curve, poor fit] |  |
| CCOC(=O)C1CCN(C(=O)Cn2ncc3c4ccccc4n(Cc4ccccc4)c3c2=O)CC1 | inconclusive: 4.47 µM [activator, full curve] |  |
| COc1ccc(S(=O)(=O)N2CCC(C(=O)N[C@@H](C)C(=O)NC3CC3)CC2)cc1 |  | inactive: 17.8% |
| COc1ccc(C(=O)N(c2ccc(C)cc2)S(=O)(=O)c2ccc(C)cc2)cc1 | inconclusive: 39.8 µM [activator, single point] |  |

| SMILES | Potency | growth rescue (activation) |
| --- | --- | --- |
| Cc1ccc(N2C(=O)CS(=O)(=O)C23C(=O)N(Cc2ccc(Cl)cc2)c2ccccc23)cc1C (stereo unspecified) | inconclusive: 50.1 µM [activator, single point] |  |
| Cc1ccc(N2C(=O)CCSC23C(=O)N(Cc2ccc(F)cc2)c2ccccc23)cc1 (stereo unspecified) |  | inactive: -4.19% |
| O=C(CSc1nc2nn(-c3ccccc3)c(=O)c-2c2n1CCCCC2)Nc1cccc(F)c1 | inconclusive: 31.6 µM [activator, single point] |  |
| C=CCNc1nc(-c2sc(NC(=O)CC)nc2C)cs1 | inconclusive: 12.6 µM [activator, partial curve] |  |
| COc1ccc(C2CC(=O)N3CN(Cc4ccco4)CSC3=C2C#N)cc1 (stereo unspecified) | inconclusive: 50.1 µM [activator, partial curve, poor fit] |  |
| COc1cc(C=Nn2c(-c3ccccc3F)n[nH]c2=S)ccc1OCc1ccccc1 |  | inactive: 32.2% |
| O=C(CSc1ccc(-c2nc3ccccc3[nH]2)cn1)N1CCN(C(=O)c2ccco2)CC1 | active: 14.1 µM |  |
| O=C(Nc1ccc(N2C(=O)[C@@H]3[C@H](C2=O)[C@@H]2C=C[C@H]3C2)c(Cl)c1)c1ccccn1 |  | inactive: -1.33% |
| COc1ccccc1C(=O)NCC(=O)OCc1csc(-c2ccccc2)n1 | inconclusive: 15.8 µM [activator, partial curve, poor fit] |  |
| COc1ccc(CCNc2nc(-c3ccc(O)cc3)cs2)cc1OC | inconclusive: 28.2 µM [activator, single point] |  |
| COc1ccccc1-c1nnc(C2CCN(S(=O)(=O)c3cccc([N+](=O)[O-])c3)CC2)o1 | inconclusive: 14.1 µM [activator, partial curve] |  |
| CN/N=C(\Cc1nc2ccccc2[nH]1)c1ccc([N+](=O)[O-])cc1 | inconclusive: 39.8 µM [activator, partial curve, poor fit] |  |
| COc1ccc2c(c1)CC(C(=O)NCCc1ccc(S(N)(=O)=O)cc1)CO2 (stereo unspecified) |  | inactive: -10.4% |
| CCCC(=O)Nc1cc(-c2nnc3c4ccccc4c(C)nn23)ccc1C |  | inactive: -10.9% |
| COc1cc2ccccc2cc1C(=O)N1CCN(c2nc3c(F)cc(F)cc3s2)CC1 | inconclusive: 28.2 µM [activator, partial curve, poor fit] |  |
| COc1ccc(NC(C)=O)cc1NC(=O)CSc1nnc(-c2ccc(F)cc2)n1N | inconclusive: 56.2 µM [activator, partial curve, poor fit] |  |
| COc1ccccc1N1CCN(C(=O)c2cc3c(-c4ccccc4F)nn(C)c3s2)CC1 | active: 17.8 µM |  |
| Cc1nn(C2CCS(=O)(=O)C2)c(Cl)c1/C=C/C(=O)OCC(=O)c1cc(C)n(-c2ccc(F)cc2)c1C (stereo unspecified) | inconclusive: 15.8 µM [activator, partial curve, poor fit] |  |
| O=C(Nc1ccc(Br)cn1)c1cccc(-c2cc3ccccc3oc2=O)c1 | inconclusive: 5.62 µM [activator, full curve] |  |
| CCCCOc1cccc(-c2cc(C(=O)NNC(=S)NCC)c3ccccc3n2)c1 | inconclusive: 17.8 µM [activator, partial curve] |  |
| CC(C)C[C@H]1CNC(=S)N1C[C@H]1CCCN1C[C@H](CC(C)C)N1C[C@H](Cc2ccc(O)cc2)N(CCc2ccccc2)C1=S | inconclusive: 25.1 µM [activator, partial curve] |  |

| SMILES | Potency | growth rescue (activation) |
| --- | --- | --- |
| CCn1c(SCC(=O)N/N=C/c2cccc(Oc3ccccc3)c2)nnc1-c1ccccc1 | inconclusive: 22.4 µM [activator, single point] |  |
| O=C(CCNS(=O)(=O)c1ccc2c(c1)CCN2C(=O)C1CC1)N1CCN(c2cccc(C(F)(F)F)c2)CC1 | inconclusive: 31.6 µM [activator, single point] |  |
| CC(=O)N1CCc2cc(S(=O)(=O)NC(Cc3ccccc3)C(=O)NCc3ccccc3Cl)ccc21 (stereo unspecified) | inconclusive: 50.1 µM [activator, single point] |  |
| N#Cc1cccc(NC(=O)c2cc(C3CCCCN3C(=O)CCCc3ccccc3)on2)c1 (stereo unspecified) | inconclusive: 8.91 µM [activator, partial curve] |  |
| CCOc1ccc(S(=O)(=O)N2CCN(C(=O)c3cc4ccccc4o3)CC2)cc1 | inconclusive: 10 µM [activator, partial curve, poor fit] |  |
| O=C(NCc1cccs1)C1CCCN(S(=O)(=O)c2cccc3ccccc23)C1 (stereo unspecified) | inconclusive: 39.8 µM [activator, single point] |  |
| CC(=O)Nc1cccc(-c2cc(NC=O)c3ncc(-c4cccc(C(C)=O)c4)n3c2)c1 | inconclusive: 50.1 µM [activator, single point] |  |
| CCN(C(=O)Cn1c(=O)n(Cc2ccc3c(c2)OCO3)c(=O)c2ccc(C(=O)NC3CCCCC3)cc21)c1cccc(C)c1 | inconclusive: 35.5 µM [activator, single point] |  |
| COC(=O)[C@]12C[C@H](CC(=O)NCc3cccc4ccccc34)C(=O)N(Cc3ccccc3)C1=C[C@H](COCc1ccccc1)O[C@@H]2C | inconclusive: 12.6 µM [activator, partial curve, poor fit] |  |
| COc1ccc(OCc2ccc(-c3nc(C#N)c(NCc4cccnc4)o3)o2)cc1 | inconclusive: 35.5 µM [activator, single point] |  |
| Cc1oc2ccc(OC(=O)N3CCOCC3)cc2c1C(=O)OC(C)C | inconclusive: 8.91 µM [activator, partial curve] |  |
| CCN(CC)c1ccc(/C=C(/C#N)c2nc3ccc(C)cc3[nH]2)c(OC(C)C)c1 | active: 8.91 µM |  |
| O=C1C(Cl)=C(N2CCCCC2)C(=O)C(Cl)=C1c1cnc(N2CCCCC2)s1 | inconclusive: 39.8 µM [activator, partial curve, poor fit] |  |
| O=C1NC[C@H](c2ccccc2)OC(=O)[C@H](Cc2ccc(F)cc2)CC/C=C/C[C@H]1CC(=O)N(CCO)Cc1ccccc1 | active: 31.6 µM |  |
| COCOCCn1cc(CN2CCS(=O)(=O)N(Cc3ccc(-c4ccc(OC)cc4)cc3)C(C)C2=O)nn1 (stereo unspecified) |  | inactive: 43.5% |
| O=C(Nc1cccc(OC(F)(F)F)c1)c1cccc2c(-c3cccnc3)coc12 | inconclusive: 35.5 µM [activator, single point] |  |
| CCN(CC)c1ccc2c(Cl)cc(=O)oc2c1 |  | inconclusive: 69.6% [activator] |
| Cc1cccc(CN2C(=O)c3ccccc3S(=O)(=O)c3ccc(C(=O)NC4CCCCC4)cc32)c1 | inconclusive: 28.2 µM [activator, single point] |  |
| COc1ccc(-c2cc(C(=O)N/N=C/c3sccc3C)c3ccccc3n2)c(OC)c1 | inconclusive: 10 µM [activator, partial curve] |  |

Reference: PubChem BioAssay AID1347120 (National Center for Advancing Translational Sciences (NCATS), 2019)
